Results on one molecule are retold here after patent US20200148757A1 (KOREA ADVANCED INSTITUTE OF SCIENCE AND TECHNOLOGY, published 2020).

The target of one experiment is T1, EGFR on A431 cells (human, UniProt P00533).
T1 construct: whole, on cells; A431 cells express high levels of EGFR (endogenous); also called EGFR+ A431 cancer cells
Put plainly: immunofluorescence staining of A431 cells, Alexa-488 anti-human IgG.

A further experiment concerns the target T2, HER2 on SKBR3 cells (human, UniProt P04626).
T2 construct: whole, on cells; SKBR3 cells express high levels of HER2 (endogenous); also called HER2+ SKBR3 cancer cells
Put plainly: immunofluorescence staining of SKBR3 cells, Alexa-488 anti-human IgG.

B1: VEGF-Grab (Fc fusion)
chain: GRPFVEMYSEIPEIIHMTEGRELVIPCRVTSPNITVTLKKFPLDTLIPDGKRIIWDSRKGFIISNATYKEIGLLTCEATVNGHLYKTNYLTHRQTNTIIDVQISTPSPVTLLRGHTLVLNCTATTPLNTRVQMTWSYPDEKNKNASVRRRIDQSNSHANIFYSVLTIDKMQNKDKGLYTCRVRSGPSFKSVNTSVHIYDKALE[sequence of human IgG1 Fc omitted]
notes: also called parental VEGF-Grab; VEGFR1 domain 2-VEGFR1 domain 3-hinge-Fc fusion protein
Take B1: the binding result in the experiment with EGFR on A431 cells and with HER2 on SKBR3 cells was “no binding (tested: 50 nM)” in each case.
